# Lines with a small IC50 respond at low doses; a fit beyond the top or the lowest dose is shown as a bound at that dose. For AUC the same curve is integrated over the 256-fold range of doses and scaled to a fraction; the more sensitive the line, the further below 1. For some assays here: The top dose, if marked as inferred, comes from the curve model; the source does not state it.
# Columns and labels:
# Experiment in all cases: Viability of human cancer cell lines after 72 h of drug (GDSC screen)
# BMS-345541 = compound: Cc1ccc2nc(NCCN)c3ncc(C)n3c2c1 [BMS-345541]; conditions: top dose 16 µM
# Description: (§1)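 Human cancer cell lines in 384-well plates, medium with 10% serum, drug for 72 h over a 256-fold dose range (nine 2-fold or five 4-fold steps up to the top dose). Adherent lines were fixed and stained with the nucleic acid dye Syto60, suspension lines read with resazurin; signal relative to control wells, capped at 0 and 100%. One two-parameter sigmoid per drug and line, fitted in a mixed model over all curves with the slope shared within a line.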
# Etoposide = compound: COc1cc([C@@H]2c3cc4c(cc3[C@@H](O[C@@H]3O[C@@H]5CO[C@@H](C)O[C@H]5[C@H](O)[C@H]3O)[C@H]3COC(=O)[C@H]23)OCO4)cc(OC)c1O [Etoposide]; conditions: top dose 16 µM
# Description: as §1
# XAV 939 = compound: Oc1nc(-c2ccc(C(F)(F)F)cc2)nc2c1CSCC2 [XAV 939]; conditions: top dose 5 µM; top dose inferred
# Description: as §1
# NPK76-II-72-1 = compound: COc1cc(C(=O)NC2CCN(C)CC2)ccc1Nc1ncc2c(n1)N(C1CCCC1)C(C)CC(=O)N2C [NPK76-II-72-1]; conditions: top dose 10.24 µM; top dose inferred
# Description: as §1
# AZD7762 = compound: NC(=O)Nc1cc(-c2cccc(F)c2)sc1C(=O)N[C@H]1CCCNC1 [AZD7762]; conditions: top dose 2 µM
# Description: as §1
# GSK-650394 = compound: O=C(O)c1ccc(-c2c[nH]c3ncc(-c4ccccc4)cc23)cc1C1CCCC1 [GSK-650394]; conditions: top dose 16 µM; top dose inferred
# Description: as §1
# Bexarotene = compound: C=C(c1ccc(C(=O)O)cc1)c1cc2c(cc1C)C(C)(C)CCC2(C)C [Bexarotene]; conditions: top dose 8 µM
# Description: as §1
Cell Line,AUC (BMS-345541),IC50 (BMS-345541) [µM],AUC (Etoposide),IC50 (Etoposide) [µM],AUC (XAV 939),IC50 (XAV 939) [µM],AUC (NPK76-II-72-1),IC50 (NPK76-II-72-1) [µM],AUC (AZD7762),IC50 (AZD7762) [µM],AUC (GSK-650394),IC50 (GSK-650394) [µM],AUC (Bexarotene),IC50 (Bexarotene) [µM]
"ES8 (Ewing sarcoma, adherent)",0.855,11.3,0.219,0.164,0.983,> 5,0.658,1.7,0.497,0.123,0.703,3.55,0.937,> 8
"ESS-1 (endometrium, adherent)",0.944,> 16,0.419,0.616,0.987,> 5,0.99,> 10.2,0.559,0.178,0.845,9.87,0.986,> 8
"EW-24 (Ewing sarcoma, semi-adherent)",0.983,> 16,0.973,> 16,0.991,> 5,0.968,> 10.2,0.94,> 2,0.98,> 16,0.992,> 8
"EoL-1-cell (haematopoietic neoplasm, suspension)",0.848,9.84,0.314,0.325,0.983,> 5,0.5,0.638,0.026,< 0.00781,0.761,5.07,0.865,5.72
"FADU (head and neck, adherent)",0.917,> 16,0.545,1.32,0.982,> 5,0.978,> 10.2,0.603,0.237,0.95,> 16,0.987,> 8
"GRANTA-519 (B-cell lymphoma, suspension)",0.845,9.88,0.59,1.71,0.968,> 5,0.908,> 10.2,0.594,0.22,0.982,> 16,0.984,> 8
"H2795 (mesothelioma, adherent)",0.862,13.4,0.863,13.5,0.926,> 5,0.834,6.53,0.598,0.231,0.987,> 16,0.899,> 8
"HCC-15 (lung squamous cell carcinoma, adherent)",0.9,> 16,0.733,5.69,0.86,> 5,0.899,> 10.2,0.878,> 2,0.91,> 16,0.802,5.3
"HCC-56 (large intestine, adherent)",0.905,> 16,0.84,11.4,0.986,> 5,0.884,> 10.2,0.715,0.515,0.88,> 16,0.969,> 8
"HSC-4 (head and neck, adherent)",0.892,> 16,0.584,1.83,0.815,3.96,0.971,> 10.2,0.487,0.114,0.952,> 16,0.959,> 8
"HT-115 (large intestine, adherent)",0.99,> 16,0.859,11.4,0.991,> 5,0.989,> 10.2,0.973,> 2,0.972,> 16,0.988,> 8
"HuP-T3 (pancreas, adherent)",0.891,> 16,0.868,> 16,0.975,> 5,0.926,> 10.2,0.503,0.128,0.94,> 16,0.93,> 8
"HuP-T4 (pancreas, adherent)",0.701,3.82,0.543,1.32,0.869,> 5,0.842,7.85,0.753,0.703,0.645,2.58,0.897,> 8
"IGR-1 (melanoma, adherent)",0.725,3.96,0.595,1.76,0.99,> 5,0.943,> 10.2,0.93,> 2,0.628,2.15,0.947,> 8
"JSC-1 (B-cell lymphoma, suspension)",0.804,7.88,0.411,0.571,0.985,> 5,0.547,0.856,0.53,0.151,0.865,13.9,0.973,> 8
"K5 (thyroid, adherent)",0.921,> 16,0.839,10.2,0.937,> 5,0.979,> 10.2,0.758,0.669,0.916,> 16,0.924,> 8
"KM12 (large intestine, adherent)",0.879,> 16,0.608,2.04,0.984,> 5,0.89,> 10.2,0.471,0.103,0.402,0.525,0.86,7.7
"KU-19-19 (bladder, adherent)",0.883,> 16,0.944,> 16,0.978,> 5,0.987,> 10.2,0.853,1.56,0.945,> 16,0.874,7.75
"KURAMOCHI (ovary, adherent)",0.837,13.2,0.399,0.506,0.963,> 5,0.905,> 10.2,0.623,0.288,0.882,> 16,0.932,> 8

# Source: the supplement of paper PMC4967469
